Results as given in PubChem BioAssay AID588855 (National Center for Advancing Translational Sciences (NCATS), 2011).
The whole screen tested about 410,000 compounds, of which about 5,000 (1.2%) were called active. The shares of active, inactive and inconclusive entries below differ from those in the screen. Calls come from the whole dose curve; as a rule, active = well fitted inhibition curve with a large enough effect; inconclusive = small, poorly fitted or top-dose-only effect; inactive = no such curve, though single readings can be large or run the other way. Where the call is inconclusive, the potency comes from a doubtful curve fit.
% is set by controls: 0 for no effect and ±100 for the full control effect; potency is the fitted concentration of half-maximal effect; tags give direction and shape of the fitted curve.

Assay: qHTS for Inhibitors of TGF-b; note: nearly all actives have a fitted effect of over 65% in size
Conditions: HepG2 CAGA-GFP TGF-b/SMAD3 reporter, GFP fluorescence, 18 h, TGF-beta stimulated, 500 pg/mL final; series mostly up to 46.1 µM; activity, negative = inhibition: at the top concentration
Method in brief: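 Per well, imaged GFP fluorescence of HEPG2 CAGA-GFP cells gives the signal; cells get compound, then TGF-beta (500 pg/mL final), 18 h at 37 degrees C; %Activity versus -TGF-beta and +DMSO controls.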
For CCc1ccc2[nH]c(=O)c(CN(Cc3ccc4c(c3)OCO4)Cc3nnnn3C3CCCC3)cc2c1, the Potency was inconclusive: 14.1 µM [inhibitor, single point].
For COc1ccc(-c2cc(-c3ccccc3)nc3c2COc2ccc(F)cc2-3)cc1, the “activity, negative = inhibition” value was inactive: 8.22%.
In the case of Cc1ccc(S(=O)(=O)N2[C@@H](c3ccccc3F)C(C(=O)O)=CC[C@H]2c2ccc(Cl)cc2)cc1, the Potency is reported as inconclusive: 35.5 µM [inhibitor, single point].
With COc1ccc(C2=C(N)c3ccccc3C2=O)cc1 the “activity, negative = inhibition” value was inactive: -0.68%.
For Cc1c(C(=O)Nc2ccc3nc(N4CCOCC4)sc3c2)oc2ccccc12, the Potency was inconclusive: 11.2 µM [inhibitor, partial curve, poor fit].
For CCOc1ccc(Nc2nc(Cc3nnc(SCC(=O)NCc4ccco4)n3CC)cs2)cc1, the “activity, negative = inhibition” value was inactive: -11.2%.
For CCOc1ccc(NC(=O)c2ccc3c(c2)CCN3S(=O)(=O)CC)cc1, the “activity, negative = inhibition” value was inactive: -13.6%.
For C[C@H](CO)N1C[C@H](C)[C@@H](CN(C)Cc2ccc(-c3ccccc3)cc2)Oc2c(NS(=O)(=O)c3cccs3)cccc2C1=O, the Potency was inconclusive: 31.6 µM [inhibitor, single point].
With CCC(C)(C)c1ccc(Oc2ccc(NC(=O)COC(=O)C3=COCCO3)cc2)cc1 the Potency was inconclusive: 35.5 µM [inhibitor, partial curve, poor fit].
With NS(=O)(=O)c1ccc(Sc2nc3ccccc3s2)c([N+](=O)[O-])c1 the Potency was inconclusive: 10 µM [inhibitor, partial curve].
For CC(=O)c1ccc(NC(=O)C(C)Sc2n[nH]c(-c3cccnc3)n2)cc1 (configuration not stated), the “activity, negative = inhibition” value was inactive: 16.4%.
For COc1ccc(/C=N/Nc2nc3ccccc3c(=O)[nH]2)cc1, the Potency was inconclusive: 35.5 µM [inhibitor, single point].
For CCOC(=O)CN1C(=O)C(O)(CC(=O)c2ccco2)c2ccccc21 (configuration not stated), the Potency was inconclusive: 6.31 µM [inhibitor, partial curve, poor fit].
With O=C(NC1CCCCC1)C(c1ccc(F)cc1)N(CCc1ccccc1)C(=O)CN1C(=O)c2ccccc2S1(=O)=O (configuration not stated) the “activity, negative = inhibition” value was inactive: 1.17%.
For CCCCCCCNC(=O)C1(CC2CC(c3ccc(Cl)cc3)=NO2)CCN(C(=O)Cc2ccc(F)cc2)CC1 (configuration not stated), the “activity, negative = inhibition” value was inactive: 0.411%.
For CN(C(=O)c1ccc(NC(=O)Cc2ccc([N+](=O)[O-])cc2)cc1)C1CCCC1, the Potency was inconclusive: 2.82 µM [inhibitor, full curve].
In the case of Cc1ccc(C(=O)c2oc3ccccc3c2NC(=O)COc2ccc(C(C)C)cc2)cc1, the “activity, negative = inhibition” value is reported as inactive: 1.36%.
For O=C(Nc1ccc(S(=O)(=O)N2CCOCC2)cc1)c1cc([N+](=O)[O-])ccc1Cl, the “activity, negative = inhibition” value was inactive: 22%.
With CCN1C(=O)[C@H]2[C@@H](c3ccc(-c4ccc5c(c4)OCO5)cc3)N3CCC[C@@]3(C(=O)OC)[C@H]2C1=O the “activity, negative = inhibition” value was inactive: -4.17%.
For Cc1noc(C)c1CN(C(=S)NC1CC1)c1ccccc1, the Potency was inconclusive: 3.55 µM [inhibitor, single point].
With Cn1c(=NC(=O)C(C)(C)C)sc2cccc(F)c21 the Potency was inconclusive: 22.4 µM [inhibitor, single point].
In the case of Cc1ccccc1NC(=O)/C(=C/c1ccco1)c1ccccc1, the Potency is reported as inconclusive: 0.126 µM [inhibitor, full curve, poor fit].
With O=C(Nc1ccsc1C(=O)NC1CC1)c1ccccc1 the Potency was inconclusive: 17.8 µM [inhibitor, partial curve].
With O=C(NC(c1ccccc1)c1ccc2ccccc2n1)C1CCN(CCOc2ccc(Cl)cc2)CC1 (configuration not stated) the Potency was active: 7.08 µM.
With Cc1cccc(N2CCN(C(=O)c3cc4cc(F)ccc4[nH]3)CC2)c1C the Potency was inconclusive: 35.5 µM [inhibitor, single point].
For NC(=O)CN1C(=O)NC(c2ccccc2)(c2ccccc2)C1=O, the “activity, negative = inhibition” value was inactive: -2.36%.
With Cc1c(C(=O)Oc2cccc3cccnc23)cccc1[N+](=O)[O-] the Potency was inconclusive: 8.91 µM [inhibitor, partial curve].
For CCC(C)(C(=O)NC1CCCCC1)N(CC1CCCO1)C(=O)CNC(=O)c1ccccc1 (configuration not stated), the “activity, negative = inhibition” value was inactive: -12.8%.
With CN1CCc2c(sc3c2C(=O)NC(c2cn(Cc4ccccc4)c4ccccc24)N3)C1 (configuration not stated) the Potency was active: 1.26 µM.
With CC(=O)OCC1OC(n2cc(F)c(=O)[nH]c2=O)C(OC(C)=O)C1OC(C)=O (configuration not stated) the Potency was inconclusive: 7.08 µM [inhibitor, full curve, poor fit].
In the case of Cc1nn(-c2ccccc2)c(Cl)c1/C=C1\SC(=S)N(CCCCCC(=O)O)C1=O, the Potency is reported as inconclusive: 10 µM [inhibitor, partial curve, poor fit].
With CCOC(=O)c1sc(NC(=O)c2ccncc2)c(C#N)c1C the Potency was inconclusive: 22.4 µM [inhibitor, single point].
For Cn1ncc2c(O/N=C(\N)c3ccc(C(F)(F)F)cc3)ncnc21, the Potency was inconclusive: 35.5 µM [inhibitor, partial curve, poor fit].
In the case of COc1ccc(C(=O)CCC(=O)Nc2ccc(N3CCN(C)CC3)cc2)cc1OC, the “activity, negative = inhibition” value is reported as inactive: -2.29%.
With CCOC(=O)c1sc(NC(=O)C2c3ccccc3Oc3ccccc32)c(C(=O)OCC)c1C the Potency was inconclusive: 31.6 µM [inhibitor, single point].
With CCn1cc(C(=O)NCc2ccccc2Cl)c(=O)c2cc(S(=O)(=O)N3CCc4ccccc4C3)ccc21 the “activity, negative = inhibition” value was inactive: -23.6%.
In the case of CC[C@]12c3[nH]c4cc(CCC(=O)N(C)C)ccc4c3CCN1C(=O)[C@@H](CC(=O)NC/C=C(\C)CCC=C(C)C)C[C@@H]2C(=O)N1CCN(C(=O)c2ccco2)CC1, the Potency is reported as inconclusive: 17.8 µM [inhibitor, single point].
With COc1ccc(N2CCN(Cc3nc4ccsc4c(=O)[nH]3)CC2)cc1 the “activity, negative = inhibition” value was inactive: -5.51%.
With Cc1ccc(S(=O)(=O)NCc2nc(-c3cccc(C)c3)no2)cc1 the Potency was inconclusive: 3.98 µM [inhibitor, partial curve, poor fit].
For COc1ccc(C2CC(=O)N(Cc3cccc(F)c3)c3ccccc3S2)cc1 (configuration not stated), the Potency was inconclusive: 17.8 µM [inhibitor, single point].
In the case of O=C(c1ccc(S(=O)(=O)N2CCCCCC2)cc1)N1CCC(CN2C(=O)c3cccc4cccc(c34)C2=O)CC1, the “activity, negative = inhibition” value is reported as inactive: -2.54%.
With Cc1nc2ccccc2n1Cc1ccccc1Br the Potency was inconclusive: 12.6 µM [inhibitor, partial curve, poor fit].
